The other results are listed elsewhere or left out. Sequences were assembled here from the parent chain. Values near 0.05 are background.
B1: TEV protease; numbered along this chain (parent)
chain: MGESLFKGPRDYNPISSSICHLTNESDGHTTSLYGIGFGPFIITNKHLFRRNNGTLVVQSLHGVFKVKDTTTLQQHLVDGRDMIIIRMPKDFPPFPQKLKFREPQREERICLVTTNFQTKSMSSMVSDTSCTFPSGDGIFWKHWIQTKDGQCGSPLVSTRDGFIVGIHSASNFTNTNNYFTSVPKNFMELLTNQEAQQWVSGWRLNADSVLWGGHKVFMVKPEEPFQPVKEATQL

Variants of: B1
Assay: raw area under fraction-flipped curve 0-4 h after induction (AUC4h, not background-subtracted), DNA-recorder readout of cleavage of the substrate (dimensionless); higher = more cleavage of the substrate by the protease variant
Conditions: temperature: 34 °C; time window: 0-4 h after rhamnose induction
Method: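 In vivo DNA recorder in E. coli TOP10(DE3) ΔrhaA at 34 °C. Each TEVp single-site mutant (parent TEVp 0) is paired with a single-site variant of the 7-mer TEVs (canonical ENLYFQ|S). The substrate sits between flexible linkers in a Bxb1-sfGFP-TEVs-SsrA fusion, so cleavage stabilises Bxb1 and speeds flipping of a recombination array, read by NGS. The value is the raw area under the fraction-flipped curve over 0-4 h after rhamnose induction (AUC4h), with ≥20 reads per time point. It is not background-subtracted; inactive controls average about 0.047.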
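Note: Bxb1 expression induced with 0.2% (w/v) L-rhamnose at OD600 near 0.5, cultures sampled hourly, flipped fraction per protease–substrate barcode pair counted by paired-end Illumina sequencing.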

S135I
area with substrate ENLAFQS: 0.0657 | area with substrate ENLDFQS: 0.0643 | area with substrate ENLFFQS: 0.0725 | area with substrate ENLHFQS: 0.0671 | area with substrate ENLIFQS: 0.0723 | area with substrate ENLKFQS: 0.0662 | area with substrate ENLLFQS: 0.0613 | area with substrate ENLNFQS: 0.0681 | area with substrate ENLPFQS: 0.0642 | area with substrate ENLQFQS: 0.07 | area with substrate ENLRFQS: 0.0288 | area with substrate ENLSFQS: 0.0618 | area with substrate ENLVFQS: 0.056 | area with substrate ENLWFQS: 0.0603

K46R
area with substrate ENLAFQS: 0.0634 | area with substrate ENLDFQS: 0.0646 | area with substrate ENLEFQS: 0.0668 | area with substrate ENLFFQS: 0.0754 | area with substrate ENLGFQS: 0.0495 | area with substrate ENLHFQS: 0.0585 | area with substrate ENLKFQS: 0.0694 | area with substrate ENLLFQS: 0.068 | area with substrate ENLNFQS: 0.0609 | area with substrate ENLPFQS: 0.0583 | area with substrate ENLQFQS: 0.0641 | area with substrate ENLRFQS: 0.0825 | area with substrate ENLSFQS: 0.0564 | area with substrate ENLWFQS: 0.0675

R10I
area with substrate ENLAFQS: 0.0474 | area with substrate ENLCFQS: 0.0723 | area with substrate ENLFFQS: 0.0922 | area with substrate ENLIFQS: 0.0768 | area with substrate ENLNFQS: 0.0686 | area with substrate ENLPFQS: 0.0581 | area with substrate ENLRFQS: 0.0704

L99S
area with substrate ENLAFQS: 0.0501 | area with substrate ENLCFQS: 0.0679 | area with substrate ENLDFQS: 0.0604 | area with substrate ENLEFQS: 0.0685 | area with substrate ENLFFQS: 0.0782 | area with substrate ENLGFQS: 0.0477 | area with substrate ENLHFQS: 0.052 | area with substrate ENLIFQS: 0.0795 | area with substrate ENLKFQS: 0.0722 | area with substrate ENLLFQS: 0.0783 | area with substrate ENLMFQS: 0.0487 | area with substrate ENLNFQS: 0.0522 | area with substrate ENLPFQS: 0.0543 | area with substrate ENLSFQS: 0.0593

T132Y
area with substrate ENLAFQS: 0.0789 | area with substrate ENLDFQS: 0.0595 | area with substrate ENLEFQS: 0.0346 | area with substrate ENLFFQS: 0.0484 | area with substrate ENLHFQS: 0.0595 | area with substrate ENLKFQS: 0.0655 | area with substrate ENLNFQS: 0.0689 | area with substrate ENLPFQS: 0.0071 | area with substrate ENLSFQS: 0.0627

T44L
area with substrate ENLAFQS: 0.0619 | area with substrate ENLDFQS: 0.0598 | area with substrate ENLEFQS: 0.0657 | area with substrate ENLFFQS: 0.0746 | area with substrate ENLGFQS: 0.052 | area with substrate ENLHFQS: 0.0507 | area with substrate ENLIFQS: 0.0537 | area with substrate ENLKFQS: 0.0372 | area with substrate ENLLFQS: 0.0692 | area with substrate ENLNFQS: 0.0562 | area with substrate ENLPFQS: 0.0543 | area with substrate ENLRFQS: 0.043 | area with substrate ENLSFQS: 0.0559 | area with substrate ENLWFQS: 0.0574

G214V
area with substrate ENLAFQS: 0.0667 | area with substrate ENLCFQS: 0.0447 | area with substrate ENLDFQS: 0.0417 | area with substrate ENLEFQS: 0.0627 | area with substrate ENLFFQS: 0.0633 | area with substrate ENLHFQS: 0.0648 | area with substrate ENLKFQS: 0.0497 | area with substrate ENLLFQS: 0.0542 | area with substrate ENLNFQS: 0.063 | area with substrate ENLPFQS: 0.0596 | area with substrate ENLQFQS: 0.0695 | area with substrate ENLSFQS: 0.0594 | area with substrate ENLWFQS: 0.0218

D128H
area with substrate ENLAFQS: 0.0667 | area with substrate ENLCFQS: 0.0785 | area with substrate ENLDFQS: 0.0693 | area with substrate ENLEFQS: 0.0698 | area with substrate ENLFFQS: 0.108 | area with substrate ENLGFQS: 0.0732 | area with substrate ENLHFQS: 0.0753 | area with substrate ENLIFQS: 0.0979 | area with substrate ENLKFQS: 0.0873 | area with substrate ENLLFQS: 0.077 | area with substrate ENLQFQS: 0.028 | area with substrate ENLSFQS: 0.0629

F218G
area with substrate ENLAFQS: 0.0378 | area with substrate ENLCFQS: 0.0649 | area with substrate ENLDFQS: 0.0632 | area with substrate ENLFFQS: 0.0639 | area with substrate ENLHFQS: 0.0512 | area with substrate ENLKFQS: 0.0661 | area with substrate ENLNFQS: 0.0659 | area with substrate ENLRFQS: 0.0938

F180I
area with substrate ENLAFQS: 0.0664 | area with substrate ENLCFQS: 0.046 | area with substrate ENLDFQS: 0.0588 | area with substrate ENLEFQS: 0.0602 | area with substrate ENLFFQS: 0.0448 | area with substrate ENLGFQS: 0.0981 | area with substrate ENLHFQS: 0.0114 | area with substrate ENLIFQS: 0.0611 | area with substrate ENLLFQS: 0.0571 | area with substrate ENLNFQS: 0.0556 | area with substrate ENLPFQS: 0.044 | area with substrate ENLQFQS: 0.0576 | area with substrate ENLSFQS: 0.0664 | area with substrate ENLVFQS: 0.0668

A232P
area with substrate ENLAFQS: 0.0681 | area with substrate ENLCFQS: 0.0864 | area with substrate ENLDFQS: 0.0743 | area with substrate ENLEFQS: 0.0665 | area with substrate ENLFFQS: 0.105 | area with substrate ENLHFQS: 0.0584 | area with substrate ENLKFQS: 0.0804 | area with substrate ENLNFQS: 0.0721 | area with substrate ENLSFQS: 0.0592

M122K
area with substrate ENLAFQS: 0.069 | area with substrate ENLDFQS: 0.0596 | area with substrate ENLEFQS: 0.0601 | area with substrate ENLFFQS: 0.109 | area with substrate ENLLFQS: 0.0771 | area with substrate ENLNFQS: 0.0818 | area with substrate ENLPFQS: 0.0501 | area with substrate ENLQFQS: 0.0643 | area with substrate ENLSFQS: 0.0516 | area with substrate ENLTFQS: 0.0339

G150L
area with substrate ENLAFQS: 0.0659 | area with substrate ENLCFQS: 0.0295 | area with substrate ENLDFQS: 0.0562 | area with substrate ENLEFQS: 0.0772 | area with substrate ENLFFQS: 0.0658 | area with substrate ENLGFQS: 0.075 | area with substrate ENLHFQS: 0.0567 | area with substrate ENLIFQS: 0.0551 | area with substrate ENLKFQS: 0.0627 | area with substrate ENLLFQS: 0.043 | area with substrate ENLMFQS: 0.0729 | area with substrate ENLNFQS: 0.0706 | area with substrate ENLPFQS: 0.0571 | area with substrate ENLQFQS: 0.0596 | area with substrate ENLRFQS: 0.0486 | area with substrate ENLSFQS: 0.0522 | area with substrate ENLWFQS: 0.0408

Q194S
area with substrate ENLAFQS: 0.0515 | area with substrate ENLDFQS: 0.0681 | area with substrate ENLFFQS: 0.0898 | area with substrate ENLIFQS: 0.092 | area with substrate ENLKFQS: 0.0844 | area with substrate ENLLFQS: 0.0812 | area with substrate ENLNFQS: 0.0819 | area with substrate ENLPFQS: 0.0705 | area with substrate ENLQFQS: 0.0768 | area with substrate ENLSFQS: 0.0658 | area with substrate ENLWFQS: 0.0957
